Assay results published in the antibiotic and cytotoxicity screens of Wong et al. (2023).
This is one part of the list.

Assays:
HSkMC = human skeletal muscle cells; assay: cytotoxicity call (relative viability < 0.9); conditions: 10 µM
S. aureus RN4220 = assay: growth inhibition call (relative growth <= 0.2); conditions: 50 µM

SMILES | cytotoxicity call (HSkMC) | growth inhibition call (S. aureus RN4220)
Cc1noc(C)c1S(=O)(=O)N(C)C[C@H]1Oc2ccc(NS(=O)(=O)c3ccc(Cl)cc3)cc2CC(=O)N([C@H](C)CO)C[C@H]1C | inactive | inactive
C=CCn1c(O)c(C#N)c(C)cc1=O | inactive | inactive
C[C@H](CO)N1C[C@H](C)[C@@H](CN(C)S(=O)(=O)c2cn(C)cn2)Oc2ccc(NC(=O)CCC(F)(F)F)cc2C1=O | inactive | inactive
O=C(Nc1ccno1)NN1CCOCC1 | inactive | inactive
Cc1ccc(S(=O)(=O)N(C)C[C@@H]2Oc3ccc(NC(=O)NC(C)C)cc3CC(=O)N([C@@H](C)CO)C[C@H]2C)cc1 | inactive | inactive
C[C@@H]1CCCCO[C@H](CN(C)C(=O)Cc2ccccc2)[C@H](C)CN([C@H](C)CO)C(=O)c2cc(NC(=O)Nc3ccc(F)cc3)ccc2O1 | inactive | inactive
CC1C(=O)CCC2C1(C)CCC1C2(C)CCC2(C)C3CC(C)(C)CCC3(C)CCC12C (stereo unspecified) | inactive | inactive
Cc1noc(C)c1S(=O)(=O)Nc1ccc2c(c1)C(=O)N([C@@H](C)CO)C[C@@H](C)[C@@H](CN(C)C(=O)Nc1ccccc1)OCCCC[C@@H](C)O2 | inactive | inactive
O=C(C[C@H]1C=C[C@@H](NS(=O)(=O)c2ccc(F)cc2)[C@@H](CO)O1)NCc1ccc(Cl)c(Cl)c1 | inactive | inactive
O=C1CN(S(=O)(=O)Cc2ccccc2)C[C@@H]2[C@@H](c3ccc(C#Cc4cccc(F)c4)cc3)[C@H](CO)N12 | active | inactive
COc1ccc(NC(=O)Nc2ccc3c(c2)C(=O)N([C@@H](C)CO)C[C@@H](C)[C@H](CN(C)CC2CCCCC2)OCCCC[C@H](C)O3)cc1 | inactive | inactive
Cn1ccc2ccc(CN)cc21 | inactive | inactive
CC(C)NC(=O)N(C)C[C@H]1Oc2c(NC(=O)NC3CCCCC3)cccc2C(=O)N([C@H](C)CO)C[C@H]1C | inactive | inactive
C[C@@H]1CCCCO[C@H](CN(C)C(=O)C2CCCCC2)[C@H](C)CN([C@@H](C)CO)C(=O)c2cc(NS(=O)(=O)c3cccs3)ccc2O1 | inactive | inactive
COc1ccc2c3c(n(c2c1)C)[C@H](CO)N(C[C@]13CCN(CC1)C(=O)Nc1ccc(cc1F)F)C(=O)Nc1ccc(cc1)F | inactive | inactive
CCC(=O)N[C@H]1CC[C@@H](CC(=O)OC)O[C@@H]1CO | inactive | inactive
Cc1ccc(S(=O)(=O)N(C)C[C@@H]2Oc3ccc(NC(=O)Nc4ccc(C(F)(F)F)cc4)cc3C(=O)N([C@H](C)CO)C[C@H]2C)cc1 | inactive | inactive
C[C@H]1CN([C@@H](C)CO)C(=O)Cc2cc(NC(=O)Nc3cccc4ccccc34)ccc2O[C@H]1CN(C)Cc1ccc(C(=O)O)cc1 | inactive | inactive
C[C@@H]1CN([C@@H](C)CO)C(=O)c2cc(NC(=O)Nc3ccc4c(c3)OCO4)ccc2O[C@@H](C)CCCCO[C@H]1CN(C)Cc1ccc2c(c1)OCO2 | inactive | inactive
C[C@H]1CN([C@@H](C)CO)C(=O)c2cc(NC(=O)NC3CCCCC3)ccc2O[C@@H]1CN(C)S(=O)(=O)c1cn(C)cn1 | inactive | inactive

SMILES | cytotoxicity call (HSkMC) | growth inhibition call (S. aureus RN4220)
Cc1noc(C)c1NC(=O)Nc1ccc2c(c1)C(=O)N([C@@H](C)CO)C[C@@H](C)[C@H](CN(C)Cc1ccc(Cl)c(Cl)c1)OCCCC[C@H](C)O2 | inactive | inactive
COCCNC(=O)C[C@H]1CC[C@@H]2[C@H](COC[C@H](O)CN2S(=O)(=O)c2ccccc2C)O1 | inactive | inactive
CO[C@@H]1CN(C)C(=O)c2ccc(NS(=O)(=O)c3ccccc3C)cc2OC[C@H](C)N(S(C)(=O)=O)C[C@H]1C | inactive | inactive
C[C@H]1CCCCO[C@@H](CN(C)C(=O)NC2CCCCC2)[C@@H](C)CN([C@@H](C)CO)C(=O)c2cc(NC(=O)NC3CCCCC3)ccc2O1 | inactive | inactive
C[C@H](O)[C@H](O)[C@@H](O)[C@@H](O)/C=N/NC(=O)c1cccc(C(=O)NO)c1 | inactive | inactive
NC(=O)[C@@H]1[C@H]2C(=O)O[C@H](c3ccccc3)[C@H](c3ccccc3)N2[C@H](c2ccc(OCCO)cc2)[C@@]12C(=O)Nc1ccc(C#CC3=CCCCC3)cc12 | inactive | inactive
CC(C)NC(=O)Nc1ccc2c(c1)C(=O)N([C@H](C)CO)C[C@@H](C)[C@H](CN(C)S(=O)(=O)c1ccccc1)O2 | inactive | inactive
C[C@H](CO)N1C[C@H](C)[C@H](CN(C)C(=O)Nc2cccc3ccccc23)Oc2ccc(NC(=O)NC3CCCCC3)cc2CC1=O | inactive | inactive
CC(C)N1C[C@H](C)[C@@H](CN(C)Cc2ccc(Oc3ccccc3)cc2)Oc2c(cccc2-c2nnc(-c3ccncc3)o2)C1=O | inactive | inactive
O=C(O)CC(O)(CC(=O)O)C(=O)O | inactive | inactive
C[C@H]1CN([C@@H](C)CO)C(=O)c2cc(NC(=O)Cn3cnnn3)ccc2O[C@@H]1CN(C)S(=O)(=O)c1ccc(F)cc1 | inactive | inactive
Cc1ccc(S(=O)(=O)N(C)C[C@H]2Oc3c(NS(=O)(=O)c4cn(C)cn4)cccc3C(=O)N([C@H](C)CO)C[C@H]2C)cc1 | inactive | inactive
COc1ccc(CN(C)C[C@@H]2OCCCC[C@@H](C)Oc3ccc(NS(=O)(=O)c4ccc(OC)cc4)cc3C(=O)N([C@@H](C)CO)C[C@H]2C)cc1 | inactive | inactive
C[C@@H]1CN([C@@H](C)CO)C(=O)c2cc(NC(=O)CCCN(C)C)ccc2O[C@@H](C)CCCCO[C@@H]1CN(C)S(C)(=O)=O | inactive | inactive
C[C@@H]1CN([C@H](C)CO)C(=O)c2cc(NS(=O)(=O)c3ccc(Cl)cc3)ccc2O[C@H]1CN(C)Cc1ccc(C(F)(F)F)cc1 | inactive | inactive
Cc1ccc(S(=O)(=O)N(C)C[C@@H]2Oc3cc(Br)ccc3S(=O)(=O)N([C@H](C)CO)C[C@@H]2C)cc1 | inactive | inactive
C[C@H](CO)N1C[C@H](C)[C@H](CN(C)Cc2ccc(Cl)c(Cl)c2)Oc2ccc(NC(=O)Nc3ccccc3)cc2C1=O | inactive | inactive
O=C(C[C@@H]1CC[C@H]2[C@@H](COC[C@@H](O)CN2C(=O)Nc2ccc(Cl)cc2)O1)NCCc1ccncc1 | inactive | inactive
COc1ccc(CN(C)C[C@@H]2OCCCC[C@@H](C)Oc3ccc(NS(=O)(=O)c4c(C)noc4C)cc3C(=O)N([C@H](C)CO)C[C@H]2C)cc1 | inactive | inactive
COCC#Cc1ccc2c(c1)O[C@@H](CN(C)C(=O)C1CCCCC1)[C@@H](C)CN([C@H](C)CO)S2(=O)=O | inactive | inactive

SMILES | cytotoxicity call (HSkMC) | growth inhibition call (S. aureus RN4220)
C[C@H]1CN([C@@H](C)CO)C(=O)c2cc(NS(=O)(=O)c3ccc(Cl)cc3)ccc2O[C@@H]1CN(C)C(=O)Nc1ccc(C(F)(F)F)cc1 | inactive | inactive
C[C@@H]1CN([C@H](C)CO)C(=O)c2cc(NC(=O)Nc3cccc4ccccc34)ccc2O[C@@H]1CN(C)S(=O)(=O)c1ccc(F)cc1 | inactive | inactive
CN(C)CC(=O)N1CC(=O)N2[C@H](CO)[C@H](c3ccc(C#Cc4cccnc4)cc3)[C@@H]2C1 | inactive | inactive
C[C@H]1CCCCO[C@H](CN(C)C(=O)NC2CCCCC2)[C@@H](C)CN([C@@H](C)CO)C(=O)c2cc(NC(=O)c3ccncc3)ccc2O1 | inactive | inactive
C[C@H]1CN([C@@H](C)CO)C(=O)c2cccc(NC(=O)Nc3cccc4ccccc34)c2O[C@H]1CN(C)Cc1ccc(-c2ccccc2)cc1 | inactive | inactive
Cc1noc(C)c1NC(=O)N(C)C[C@H]1OCCCC[C@H](C)Oc2ccc(NC(=O)CCC(F)(F)F)cc2C(=O)N([C@@H](C)CO)C[C@H]1C | inactive | inactive
COC(=O)[C@H](Cc1ccccc1)N1C[C@](C)(OC(C)C)O[C@@H](CCn2cc(COc3ccccc3/C=C(C)/C=C/C(=O)NO)nn2)[C@@H]1/C=C/C1CC1 | inactive | inactive
COc1ccc(CN(C)C[C@@H]2OCCCC[C@H](C)Oc3ccc(NC(=O)Nc4ccc(F)cc4)cc3C(=O)N([C@H](C)CO)C[C@H]2C)cc1 | inactive | inactive
C=CCC[C@H](Cc1ccc(F)cc1)C(=O)OC[C@@H](NC(=O)[C@H](CC=C)CC(=O)N(CCO)Cc1ccccc1)C(C)(C)C | inactive | inactive
C[C@@H]1CN([C@H](C)CO)C(=O)c2cccc(NC(=O)c3nc4ccccc4s3)c2O[C@H]1CN(C)CC1CCCCC1 | inactive | inactive
C[C@@H]1CN([C@@H](C)CO)C(=O)c2cccc(NC(=O)Nc3ccc(F)cc3)c2O[C@H]1CN(C)C(=O)Nc1ccc(C(F)(F)F)cc1 | inactive | inactive
COc1ccc(NC(=O)Nc2cccc3c2O[C@@H](CN(C)C(=O)Nc2cccc4ccccc24)[C@H](C)CN([C@H](C)CO)C3=O)cc1 | inactive | inactive
COc1ccc(S(=O)(=O)N(C)C[C@@H]2OCCCC[C@H](C)Oc3ccc(NC(=O)Nc4ccccc4)cc3C(=O)N([C@H](C)CO)C[C@@H]2C)cc1 | inactive | inactive
CCCCCCCCCCCCCCCCCC(=O)NCCCCOn1c(CCCC)nc2c(N)nc3ccccc3c21 | inactive | inactive
Nc1ccc(Cl)nn1 | inactive | inactive
C[C@@H]1CCCCO[C@H](CN(C)Cc2ccc(Cl)c(Cl)c2)[C@@H](C)CN([C@@H](C)CO)C(=O)c2cc(NC(=O)Nc3ccccc3)ccc2O1 | inactive | inactive
C[C@@H]1CN([C@@H](C)CO)C(=O)Cc2cc(NC(=O)NC3CCCCC3)ccc2O[C@H]1CN(C)Cc1ccc(Cl)c(Cl)c1 | inactive | inactive
Cc1ccc(S(=O)(=O)Nc2ccc3c(c2)C(=O)N([C@@H](C)CO)C[C@H](C)[C@@H](CN(C)C(=O)Nc2cccc4ccccc24)OCCCC[C@H](C)O3)cc1 | inactive | inactive
